PubChem BioAssay AID485281 (National Center for Advancing Translational Sciences (NCATS), 2010)
Screen size: about 350,000 compounds; about 260 (0.074%) were called active. Inconclusive results, whose numbers are uncertain, are shown with a selection of clear calls. Calls come from the whole dose curve; as a rule, active = well fitted inhibition curve with a large enough effect; inconclusive = small, poorly fitted or top-dose-only effect; inactive = no such curve, though single readings can be large or run the other way. Where the call is inconclusive, the potency comes from a doubtful curve fit.

target: Ferritin light chain (Equus caballus) (UniProt P02791); experiment: qHTS Assay for Identification of Novel General Anesthetics; settings: apoferritin/1-aminoanthracene competitive binding, fluorescence; series mostly up to 77.5 µM; note: nearly all actives have a fitted effect of over 20% in size
Method in brief: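 Apoferritin-based anesthetic binding model; compound displacement of fluorescent 1-AMA measured as endpoint fluorescence after 10 minutes at room temperature, scaled to free-ligand and complex controls.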
Potency is the fitted concentration of half-maximal effect; tags give direction and shape of the fitted curve.

UniProt P02791, sequence (P02791 whole entry, looked up): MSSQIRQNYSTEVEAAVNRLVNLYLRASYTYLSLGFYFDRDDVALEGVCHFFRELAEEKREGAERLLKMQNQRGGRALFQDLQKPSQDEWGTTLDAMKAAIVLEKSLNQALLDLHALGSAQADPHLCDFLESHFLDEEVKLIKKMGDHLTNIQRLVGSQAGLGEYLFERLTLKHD

Potency, inconclusive:
CCCSc1ncc(Cl)c(C(=O)Nc2ccc(S(=O)(=O)N3CCCC(C)C3)cc2)n1 (stereo not given) 28.2 µM [inhibitor, partial curve]
Cc1ccc(NC(=O)CN2C(=O)c3cccnc3Sc3ccccc32)cc1C 20 µM [inhibitor, partial curve]
CCCn1c(=O)c2ccccc2n2c(SCc3nc4ccccc4s3)nnc12 15.8 µM [inhibitor, partial curve]
O=C(Nc1ccc(-c2nc3ccccc3s2)cc1)c1cc(-n2cnnc2)ccc1Cl 25.1 µM [inhibitor, partial curve]
c1ccc(-c2cc(-c3nnc4sc(-c5ccccn5)nn34)[nH]n2)cc1 35.5 µM [inhibitor, partial curve]
O=C(COc1ccccc1Br)c1ccc(O)cc1O 28.2 µM [inhibitor, partial curve]
CC(=O)c1c(C)[nH]c(C(=O)COC(=O)CNS(=O)(=O)c2ccccc2)c1C 28.2 µM [inhibitor, partial curve]
CNC(=S)N/N=C/C1=CCC2CC1C2(C)C (stereo not given) 20 µM [inhibitor, partial curve]
CC(C)NC(=S)NN(c1ccccc1)c1ccccc1 39.8 µM [inhibitor, single point]
CN(C)c1ccc(S(=O)(=O)NCC(=O)OCC(=O)Nc2cccc(Cl)c2)cc1[N+](=O)[O-] 35.5 µM [inhibitor, partial curve]
CC(C)C[C@H](NC(=O)c1nc[nH]c1C(=O)NC(c1ccccc1)c1ccccc1)C(=O)OC(C)(C)C 2 µM [inhibitor, full curve]
CCOc1ccc(CCNC(=O)CCn2c(=O)c3cccn3c3ccc(F)cc32)cc1OCC 28.2 µM [inhibitor, partial curve]
CC(C)(C)c1ccc(OCC(=O)Nc2ccncc2)cc1 35.5 µM [inhibitor, single point]
COc1cc(/C=C2\SC(=S)N(Nc3ccccc3)C2=O)cc(OC)c1OC 28.2 µM [inhibitor, partial curve]
Cc1ccccc1SCC(=O)N/N=C/c1ccc(F)cc1 15.8 µM [inhibitor, partial curve]
COc1cc2ccccc2cc1C(=O)N1CC(C)CC(C)C1 (stereo not given) 31.6 µM [inhibitor, partial curve]
N/C(=N\OC(=O)c1ccccc1Cl)c1ccncc1 31.6 µM [inhibitor, partial curve]
Cc1cc(C(=O)Nc2cccc3ccccc23)co1 56.2 µM [inhibitor, single point]
COc1ccc2c(c1)C(c1cccs1)=NNC(c1cccnc1)=N2 28.2 µM [inhibitor, single point]
COc1ccc(NS(=O)(=O)c2ccc3c(c2)CC(C)N3C(=O)C2CCC2)cc1OC (stereo not given) 28.2 µM [inhibitor, partial curve]
Cc1cc(C(F)(F)F)nc(SCC(=O)c2cccc([N+](=O)[O-])c2)n1 20 µM [inhibitor, partial curve]
O=C(Nc1cnn(Cc2ccccc2)c1)c1nc2ncccn2n1 35.5 µM [inhibitor, partial curve]
CC(Cc1ccc(Cl)cc1)N1CCC(n2nccc2NC(=O)C2CCCC2)CC1 (stereo not given) 35.5 µM [inhibitor, single point]
COc1cc(N=Nc2ccc3ccccc3c2)ccc1O 35.5 µM [inhibitor, partial curve]
CCN(c1ccccc1)S(=O)(=O)c1ccc(C(=O)NCC(c2cccs2)N(C)C)cc1 (stereo not given) 25.1 µM [inhibitor, partial curve]
C[C@H](NC(=O)c1nc[nH]c1C(=O)N[C@@H](C)c1ccccc1)C(=O)OC(C)(C)C 28.2 µM [inhibitor, partial curve]
CC(=O)c1cccc(NC(=O)NNC(=O)CCC(=O)Nc2ccc(C)c(C)c2)c1 35.5 µM [inhibitor, single point]
CC1CCCC(NC(=O)CCC(=O)NCc2ccccc2)C1C (stereo not given) 50.1 µM [inhibitor, single point]
CN1CCN(c2ccc(NC(=O)c3cc4ccccc4o3)cc2)CC1 39.8 µM [inhibitor, single point]
Cc1ccc(-c2cn3c(n2)sc2cc(C(=O)NC4CCCCCC4)ccc23)cc1 7.08 µM [inhibitor, full curve, poor fit]
CC1=NOC(=O)/C1=C\c1ccc(-c2cccc(Cl)c2)o1 31.6 µM [inhibitor, partial curve]
CCc1ccc(NC(=O)C2(c3ccccc3)CC2(Cl)Cl)cc1 (stereo not given) 5.62 µM [inhibitor, full curve]
CC(C)=CCC/C(C)=C/CCC(C)NCCN1CCNCC1 (stereo not given) 15.8 µM [inhibitor, partial curve]
COc1ccc(C(C(=O)Nc2ccc(C(C)C)cc2)N(C)C(=O)c2ccc(=O)[nH]c2)cc1 (stereo not given) 39.8 µM [inhibitor, single point]
CC1=CC(C)(C)Nc2cc(C)c(C)cc21 28.2 µM [inhibitor, single point]
CCC1S/C(=C(\C#N)C(=O)NCc2ccco2)N(c2ccc(F)cc2)C1=O (stereo not given) 28.2 µM [inhibitor, single point]
FC(F)(F)c1cnc(Oc2ccc(-c3nnco3)cc2)c(Cl)c1 35.5 µM [inhibitor, partial curve]
CC(=O)c1ccc(N2CCN(C(=O)/C=C/c3ccc(S(=O)(=O)NCc4ccco4)cc3)CC2)cc1 15.8 µM [inhibitor, partial curve]
N#CC1=C(N)Oc2n[nH]c(-c3cccs3)c2C1C1C=CCCC1 (stereo not given) 12.6 µM [inhibitor, partial curve]
COC(=O)C1=C(C)NC(C)=C(C(=O)OCC2CCCO2)C1c1ccc(Cl)c([N+](=O)[O-])c1 (stereo not given) 35.5 µM [inhibitor, partial curve]
Clc1ccccc1CO/N=C1\CCCc2nonc21 39.8 µM [inhibitor, single point]
CCC(C)C(NC(=O)C1CCC(C)CC1)C(=O)Nc1cc(OC)ccc1OC (stereo not given) 25.1 µM [inhibitor, partial curve, poor fit]
Cc1ccc(OCc2cc(C(=O)NC(C)Cc3cccnc3)no2)cc1C (stereo not given) 31.6 µM [inhibitor, partial curve]
NC(=O)C(c1ccc(Br)cc1)c1ccc(C(=O)c2ccccc2)cc1 (stereo not given) 31.6 µM [inhibitor, partial curve]
CCN(CC)S(=O)(=O)c1cc(OC)c(C)cc1C 35.5 µM [inhibitor, partial curve]
O=C(CN1C(=O)NC2(CCCCC2)C1=O)NCCC1=CCCCC1 11.2 µM [inhibitor, partial curve, poor fit]
CCC(C(=O)Nc1ccon1)c1ccccc1 (stereo not given) 22.4 µM [inhibitor, partial curve]
COc1ccc(/C=C2/SC(=S)N(CCCC(=O)Nc3cccc(O)c3)C2=O)cc1 14.1 µM [inhibitor, partial curve, poor fit]

Potency, inactive:
CCOc1ccc2[nH]c(=O)c(CN(CCO)C(=O)c3ccc(OC)c(OC)c3)cc2c1
Nc1ccc(Br)c2cccnc12
C/C(C/C(C)=C1/SC(=S)NC1=O)=C1\SC(=S)NC1=O
S=C(NCCc1ccccc1)Nc1ccc(Nc2ccccc2)cc1
CCOC(=O)c1c(N)n(-c2ccc(N)cc2)c2nc3ccccc3nc12
C/C=C/C=C\C(=O)Nc1cccc(C2=NOC3(C2)C[C@H](C(N)=O)N(C(=O)/C=C/C)C3)c1 (stereo not given in full)
CC(C)n1cc(-c2ccc(Cl)cc2)cc(C#N)c1=O
CCn1cc(C(=O)N(C)c2cc(C)ccc2C)c2cc(OC)c(OC)cc2c1=O
CCOC(=O)c1cc(OC(=O)c2cccc([N+](=O)[O-])c2)n(-c2ccccc2)n1
COc1ccc(Br)cc1CNC(=O)C1CCN(c2nnc(-n3cccc3CNc3ccc(C)cc3)s2)CC1
COc1ccc(NS(=O)(=O)c2ccc(NC(=O)c3ccc(N(C)S(C)(=O)=O)cc3)cc2)c(OC)c1
COc1cc2c(C(=O)N3CCN(c4ccc(F)cc4)CC3)cn(CC(C)C)c(=O)c2cc1OC
Cc1cccc(OCC2=NS(=O)(=O)c3ccccc3N2)c1
Cc1ccccc1N1CCN(C2CCCN(C(=O)c3snnc3C)C2)CC1 (stereo not given)
CSc1nc(NCC(C)C)c2c3c(sc2n1)CN(C)CC3
CSCCOC(=O)C1=C(C)NC(=O)NC1c1ccc2c(c1)OCO2 (stereo not given)
Nc1ccc(C(=O)OCc2nc3cc4ccccc4cc3[nH]2)cc1
CCC(C)c1ccc(NC(=O)N2CCOCC2)cc1 (stereo not given)
Cc1ccccc1NC(=S)NCCO
COc1ccc(NC(=O)c2sc3nc4n(c(=O)c3c2C)CCC4)c(OC)c1
COc1ccc(CCNC(=O)C(=O)NCC2OCCN2S(=O)(=O)c2cc(F)ccc2F)cc1 (stereo not given)
CCCCNC(=O)CCC(=O)Nc1ccc2nc(N3CCOCC3)cc(C)c2c1
